# Test results taken from the supplement of paper PMC3334620.
# Whole data set: some 33,000 sequences, median “E-score (-0.5 to 0.5)” near -0.041, cut for the highest 2% near 0.37. Some of the results follow.
# Biological target: T1, Ecm22 (UniProt Q05958)
# T1 sequence: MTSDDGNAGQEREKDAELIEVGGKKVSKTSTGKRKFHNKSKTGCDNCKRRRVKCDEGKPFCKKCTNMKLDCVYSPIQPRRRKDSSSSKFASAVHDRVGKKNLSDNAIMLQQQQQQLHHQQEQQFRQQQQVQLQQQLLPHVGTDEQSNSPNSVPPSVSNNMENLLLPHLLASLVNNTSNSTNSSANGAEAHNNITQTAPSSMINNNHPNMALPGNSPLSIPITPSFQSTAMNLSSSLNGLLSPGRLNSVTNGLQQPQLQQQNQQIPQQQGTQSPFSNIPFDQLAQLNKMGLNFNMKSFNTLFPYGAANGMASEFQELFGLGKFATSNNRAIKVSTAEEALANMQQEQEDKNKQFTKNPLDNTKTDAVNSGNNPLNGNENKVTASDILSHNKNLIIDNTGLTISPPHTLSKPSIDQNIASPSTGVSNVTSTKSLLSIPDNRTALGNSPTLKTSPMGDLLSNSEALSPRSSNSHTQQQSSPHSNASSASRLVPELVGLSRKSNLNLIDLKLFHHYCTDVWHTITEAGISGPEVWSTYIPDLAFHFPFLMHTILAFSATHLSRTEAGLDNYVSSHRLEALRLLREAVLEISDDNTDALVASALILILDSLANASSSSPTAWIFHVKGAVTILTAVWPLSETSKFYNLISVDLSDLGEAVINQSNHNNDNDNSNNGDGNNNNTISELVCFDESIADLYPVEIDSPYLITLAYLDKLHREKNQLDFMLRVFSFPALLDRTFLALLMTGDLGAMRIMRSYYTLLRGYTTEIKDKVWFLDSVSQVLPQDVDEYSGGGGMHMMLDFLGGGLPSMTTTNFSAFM
# Test: PBM E-score (8-mer binding enrichment) (E-score (-0.5 to 0.5)); higher = stronger / more preferred TF binding; most listed sequences are background and not binding sites
# Details: protein concentration: 200 nM; construct: GST-full length
# Procedure: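 Universal 'all 10-mer' protein binding microarrays (Agilent AMADID 015681) probed with GST-tagged S. cerevisiae TFs (full-length or DBD) made by in vitro transcription/translation (PURExpress), about 100-200 nM. Bound TF was detected with fluorescent anti-GST. Each ungapped 8-mer (which stands for itself and its reverse complement) is scored by the PBM enrichment score (E-score), a modified Wilcoxon-Mann-Whitney statistic from -0.5 to +0.5, computed with the Universal PBM Analysis Suite. Scale: above 0.35 generally sequence-specific binding.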
row,Sequence,PBM E-score
1,CGTAGTAA,0.195
2,AATCCAGG,0.0632
3,ACAGACGA,0.161
4,AATGCGAT,0.112
5,TCCGAGCA,0.236
6,ACCTAGCA,-0.0648
7,CCAAAGGC,-0.157
8,GAAGGCAA,-0.00459
9,AAGATATG,0.029
10,ACGGTTTC,0.23
11,ACGTCTCA,-0.0873
12,GCACATAC,-0.208
13,CACGTGAG,-0.229
14,GCCCGATA,-0.166
15,CCGCAAAG,0.0479
16,CTAGCTCA,-0.0782
17,CATGGATC,-0.227
18,AGTATGCC,-0.134
19,AGGAGCAA,-0.154
20,CTGGTCGA,-0.161
21,AATTCGAA,-0.0672
22,GATAGTTA,0.227

row,Sequence,PBM E-score
1,TAAAACCA,-0.00311
2,GCATGCAA,0.0969
3,ATCTGCGC,-0.135
4,ACGCGCTA,0.216
5,CAGGCAAG,-0.254
6,CGCCGCCC,-0.0997
7,CTGCAGCA,-0.0773
8,CTTCAGTA,-0.0196
9,AAGGTAGG,-0.18
10,GAGGAAAA,-0.0267
11,CGATCATA,0.155
12,TGGTGAAA,-0.046
13,CAGGTCAA,-0.195
14,GGACGCCC,-0.126
15,AACGGTCT,0.0502
16,AAACACTG,-0.0685
17,CCAGGTCG,-0.0864
18,GCAAGACA,-0.113
19,GTTAATAA,0.159
20,CTGTCGAC,0.0179
21,CCACGGCG,0.0206
22,TGGCCCAA,-0.0847

row,Sequence,PBM E-score
1,AGTGATTG,-0.129
2,ACGAGTGG,0.331
3,CCGGTGGA,0.0344
4,ACGTCGTA,0.464
5,ATTCTAGA,-0.0426
6,AGCCCATC,-0.0704
7,ACGACACT,0.278
8,ACAGTCGC,0.122
9,CCACTCTC,-0.0812
10,AGGCTCGA,-0.0988
11,GGGCAGCA,-0.265
12,CCGACCAA,0.105
13,AAATGGTC,0.0301
14,TACCGACA,0.198
15,ATCTCAGC,-0.176
16,CGCATTCC,-0.285
17,AAAGCCAT,0.0454
18,CACAGGGC,-0.186
19,CACGGCAA,0.0928
20,AACATCAG,-0.198
21,TACGGAAA,0.305
22,CGTGCCCA,0.0434

row,Sequence,PBM E-score
1,ATCGCAGA,-0.00881
2,ACTAAGCG,0.248
3,GTGAGTGA,-0.118
4,ACCCTAAC,-0.0421
5,GCCAAAGC,-0.31
6,AATGATAG,0.17
7,ATCGTTTG,0.414
8,GACTACAC,0.0822
9,CTAACTTA,-0.0664
10,GCACCTGC,-0.163
11,GAACCAGC,-0.136
12,ATAGTGTG,-0.0602
13,CACGGATC,0.0362
14,ACCTAAAT,0.112
15,GGGTCTAC,-0.0108
16,GGTCAGGA,-0.165
17,CTTCCTAC,-0.303
18,GGATAGCA,0.0911
19,CTGTTAGA,-0.127
20,GCGGAGCA,0.0503
